From PubChem BioAssay AID686978 (National Center for Advancing Translational Sciences (NCATS), 2013)
Values joined by “and” are separate entries in the source; they are usually repeats but may differ in a detail not shown here. Equal entries are not always repeated. Hit rate of the full screen: of about 420,000 compounds, about 64,000 (15%) were called active. Inconclusive means that the source gave no clear call. Such entries were picked first, then a sample of the others. Calls come from the whole dose curve; as a rule, active = well fitted inhibition curve with a large enough effect; inconclusive = small, poorly fitted or top-dose-only effect; inactive = flat fitted curve, though single readings scatter. No potency is given beside an inconclusive call; the fits are too rough. More than one record can exist for a structure, and the calls need not agree.

Test: qHTS for Inhibitors of human tyrosyl-DNA phosphodiesterase 1 (TDP1): qHTS in cells in absence of CPT; note: nearly all actives have a fitted effect of over 55% in size
Conditions: DT40 Tdp1-/- hTDP1 cells, no CPT, ATP luminescence, 48 h; activity change, negative = growth inhibition: at 46.2 µM (top of the series)
How it was run: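 Chicken DT40 Tdp1-/- cells stably complemented with human TDP1 were seeded at 400 cells/well with DMSO in place of 20 nM camptothecin. After compound pinning, cells grew at least 48 hr at 37 °C; viability read by CellTiter-Glo luminescence.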
% is set by controls: 0 for no effect and ±100 for the full control effect; potency is the fitted concentration of half-maximal effect; tags give direction and shape of the fitted curve.

Structure (SMILES)	Potency	activity change, negative = growth inhibition
Cc1csc(Sc2ccc(S(=O)(=O)N3CCCC3)cn2)n1	inactive	
CCC(C)Sc1ccc([C@H]2N[C@@](C)(C(=O)OC)[C@H]3C(=O)N(C)C(=O)[C@@H]23)cc1 (stereo partly drawn)		inconclusive: -34.4% [inhibitor]
Cc1ccc(-c2nnc(Nc3ccc(C(N)=O)cc3)c3ccccc23)cc1S(=O)(=O)N1CCCCC1		inconclusive: -30.6% [inhibitor]
COc1ccc(CCNC(=O)c2ccc(CS(=O)(=O)c3ccc(C)cc3)o2)cc1OC	active: 14.6 µM	
COc1cc(OC)cc(-c2cc3nc(C)c(CCC(=O)O)c(C)n3n2)c1	inconclusive [inhibitor, single point]	
CCn1cc(C(=O)OCC(=O)c2cc(C)n(-c3cccc(C(F)(F)F)c3)c2C)c(=O)c2ccc(C)nc21	inconclusive [inhibitor, single point]	
CCCOC(=S)N/C(=N\S(=O)(=O)c1ccccc1)c1ccccc1	inconclusive [inhibitor, single point]	
CCC(=O)NC(=S)Nc1ccc(NC(=O)c2cccc([N+](=O)[O-])c2C)cc1	inconclusive [inhibitor, partial curve, poor fit]	
Cc1cc(C)cc(Oc2coc3c(CN(C)C)c(O)ccc3c2=O)c1	inactive	
Cn1c(=O)c2c(-c3ccccc3)n(-c3ccc(N)cc3)cc2n(C)c1=O	active: 14.6 µM	
CCSc1nnc(NC(=O)C(C)(C(F)(F)F)C(F)(F)F)s1	active: 18.4 µM	
CC(=O)N1CCN(C(=O)c2cc3c(s2)CCC(C)C3)CC1 (stereo not drawn)	inactive	
CCc1ccc(NC(=O)CSC2=Nc3ccccc3C3=NC(CCC(=O)NCc4cccs4)C(=O)N23)cc1 (stereo not drawn)	inconclusive [inhibitor, single point]	
CCCc1nn2c(=O)cc(COC(=O)c3ccc(NC(=O)c4cccs4)cc3)nc2s1	active: 20.6 µM	
NC(=O)c1ncn([C@@H]2O[C@H](CNCc3ccccc3C#Cc3ccccc3)[C@@H](O)[C@H]2O)n1	inactive	
Cc1cc(Br)ccc1SCC(=O)OCC(=O)c1c(N)n(C)c(=O)n(C)c1=O	inactive	
CCc1ccc(-n2c(C)nc3cc(C(=O)NCc4cccnc4)ccc32)cc1	inconclusive [inhibitor, partial curve]	
CCCn1c(SCC(=O)N(C)C2CCS(=O)(=O)C2)nc2sc3c(c2c1=O)CCC3 (stereo not drawn)	inconclusive [inhibitor, single point]	
CCCS(=O)(=O)NC(=O)C1(C)CCN(C(=O)c2ccc(C#N)cc2)C1 (stereo not drawn)	inactive	
COc1ccc(CNC(=O)CCc2c(C)nc3c(c2C)c(=O)n(C)c(=O)n3C)cc1	inactive	
Cc1cccc(-n2ccnc2SCC(=O)Nc2ccccc2C(F)(F)F)c1	inconclusive [inhibitor, single point]	
CN(C)S(=O)(=O)c1cccc(NC(=O)CSc2ncnc3ccccc23)c1	active: 18.4 µM	
O=C(NC(Cc1ccccc1)C(=O)O)C1CCN(S(=O)(=O)c2cccc(C(F)(F)F)c2)CC1 (stereo not drawn)	inconclusive [inhibitor, partial curve]	
COC(CN(C)C(=O)C1CCC(CNS(=O)(=O)c2ccc(C)cc2)CC1)OC (stereo not drawn)	inconclusive [inhibitor, partial curve]	
COc1cccc(CNC(=O)C2CCCN(C(=O)c3ccc(Cl)cc3)C2)c1 (stereo not drawn)	inconclusive [inhibitor, single point]	

Structure (SMILES)	Potency	activity change, negative = growth inhibition
O=C(/C=C\c1ccco1)Oc1cccc2cccnc12	active: 0.651 µM	
CCc1cc(=O)oc2cc(C)cc(OC(C)C(=O)NCCN3CCOCC3)c12 (stereo not drawn)	inactive	
Cc1cc2cccc(C)c2nc1SCC(=O)NCC1CCCO1 (stereo not drawn)	inactive	
COc1ccc(S(=O)(=O)NC(C)C)cc1C(=O)NC1CCCCC1	inconclusive [inhibitor, single point]	
COc1cccc2[nH]c3c(N4CCc5ccccc5C4)ncnc3c12	active: 20.6 µM	
CCOC(=O)[C@H]1O[C@@H]1C(=O)N[C@@H](CC(C)C)C(=O)NCCC(C)C	inconclusive [inhibitor, full curve, poor fit]	
CC(C)(CO)NC(=O)C12CC3CC(CC(Br)(C3)C1)C2	inactive	
Cc1ccc2c(c1)N(C(=O)CCC(=O)NCC(C)c1ccccc1)CC(C)O2 (stereo not drawn)	inconclusive [inhibitor, single point]	
CCCCN(C)C(=O)Cc1c(OC)ccc2cc(Br)ccc12	active: 18.4 µM	
COc1ccccc1C1C=C(c2ccc(C)cc2)Nc2nnnn21 (stereo not drawn)	active: 20.6 µM	
O=C(COC(=O)c1ccccc1C(=O)c1ccc(Cl)cc1)NCc1ccccc1	active: 18.4 µM	
Cc1ccc(COc2ccccc2C(=S)N2CCCC2)cc1	active: 20.6 µM	
N#CC1=C(N)Oc2[nH]c(=S)[nH]c(=O)c2C12C(=O)Nc1ccccc12 (stereo not drawn)	inconclusive [inhibitor, single point]	
COc1ccccc1N(C)S(=O)(=O)c1ccc(C(=O)Nc2nc(C)c(C(C)=O)s2)cc1	inconclusive [inhibitor, single point]	
CC1=Nc2cc(C(=O)NCCCN3CCN(C)CC3)ccc2Sc2ccc(C)cc21	active: 18.4 µM	
COc1ccc(C2CCCN2C(=S)Nc2cccc(C)c2)cc1OC (stereo not drawn)	inconclusive [inhibitor, single point]	
O=c1c(Cl)c(N/N=C/c2ccc(Cl)cc2)cnn1-c1ccccc1	inconclusive [inhibitor, single point]	
O=C(NCc1cccc2ccsc12)c1cccs1	inconclusive [inhibitor, partial curve]	
Cc1c(C(=O)N2CCOCC2)[nH]c2c1C(=O)CC(c1ccc(Cl)cc1)C2 (stereo not drawn)	inactive	
CCOC(=O)c1sc(NC(=O)CSc2nc3ccccc3o2)c(C(=O)OCC)c1C	inconclusive [inhibitor, single point]	
COc1ccc(/C=N/NC(=O)c2cc(OC)c(OC)c(OC)c2)cc1CN1CCc2cc(OC)c(OC)cc2C1C (stereo not drawn)	inconclusive [inhibitor, single point]	
CN(C(=O)COc1ccccc1C(=O)NCCOc1ccccc1)c1ccccc1	active: 2.31 µM	
CC(NC(=O)COc1ccccc1Cl)c1ccccc1 (stereo not drawn)	inconclusive [inhibitor, single point]	
CCc1ccccc1NC(=O)CC(c1ccc(F)cc1)N1Cc2ccccc2C1=O (stereo not drawn)	active: 23.1 µM	
COC(=O)c1ccc(NC(=O)c2nn(C)c3c2CS(=O)(=O)c2ccccc2-3)cc1	inactive	

Structure (SMILES)	Potency	activity change, negative = growth inhibition
CCOC(=O)Cc1csc(NC(=O)COC(=O)/C=C/c2ccc(OC)cc2)n1	inactive	
CN1C(=O)N(c2ccccc2)C(Nc2nncs2)C1(C)C (stereo not drawn)	inactive	
CCN(CC)c1ccc(-c2nnc(SCC(=O)NCc3ccco3)n2CC)cc1	inconclusive [inhibitor, single point]	
CC[C@](N)(CCC(=O)O)C(=O)O	inactive and active: 18.8 µM	
CCCCCCSC1=C(C#N)C(c2ccc(O)cc2)CC(=O)N1 (stereo not drawn)	inconclusive [inhibitor, partial curve]	
COc1cccc(N2C(=O)CSC23C(=O)N(CC(=O)Nc2cc(C)ccc2C)c2ccccc23)c1 (stereo not drawn)	inconclusive [inhibitor, single point]	
COc1cccc(S(=O)(=O)N(C)C[C@@H]2Oc3cc(Br)ccc3S(=O)(=O)N([C@@H](C)CO)C[C@@H]2C)c1	active: 25.9 µM	
CCOc1ccc(S(=O)(=O)Nc2cccc(N(C)S(C)(=O)=O)c2)cc1	active: 11.6 µM	
Cc1cccc(-c2cc3c(nn2)-c2ccccc2C3=O)c1	inconclusive [inhibitor, single point]	
CCc1ccc(C(=O)CC2(O)C(=O)N(CN3CCOCC3)c3ccccc32)cc1 (stereo not drawn)	inconclusive [inhibitor, single point]	
c1csc(-c2nc(N3CCCCC3)no2)c1	inactive	
CCSc1nnc(NC(=O)c2nc(-c3ccccc3)n(-c3ccccc3)n2)s1		inconclusive: -35.6% [inhibitor]
CC(C)n1c(SCC(=O)Nc2ccc(N3CCOCC3)cc2)nnc1-c1ccco1	inactive	
C/C(=N\Nc1cc(N2CCCCC2)nc(C)n1)c1ccc(Br)cc1	active: 5.8 µM	
COc1ccc(S(=O)(=O)N(C)C[C@H]2Oc3c(NS(=O)(=O)c4ccc(F)cc4)cccc3C(=O)N([C@H](C)CO)C[C@@H]2C)cc1	inconclusive [inhibitor, single point]	
O=C(Nc1cccc2c1CCCC2)c1ccc(F)cc1	inactive	
CC1CCN(S(=O)(=O)c2ccc3nc(-c4cccnc4)cc(C(=O)NCCCOC(C)C)c3c2)CC1	inactive	
OCCCCNCc1ccc(OCc2ccc(Cl)cc2)cc1	inconclusive [inhibitor, single point]	
Cc1cccc(NC(=O)C(C)Oc2ccc(C)nc2[N+](=O)[O-])c1 (stereo not drawn)	inactive	
CCC(c1nnnn1-c1ccc2c(c1)OCCO2)N1CCc2ccccc2C1 (stereo not drawn)	inconclusive [inhibitor, single point]	
Clc1ccc(-c2nnc(-c3ccc4ccccc4c3)o2)cc1	inactive	
Cc1cccc(N2C(=O)CC(SC(=Nc3ccccc3)Nc3ccccc3)C2=O)c1 (stereo not drawn)	inconclusive [inhibitor, single point]	
O=C1OC(c2ccc(F)cc2)=C/C1=C\c1ccc(O)cc1	inconclusive [inhibitor, single point]	
